Reference: the supplement of paper PMC3334620
Whole data set: some 33,000 sequences, median “E-score (-0.5 to 0.5)” near -0.041, cut for the highest 2% near 0.37. This is one part of the list.

What follows are sequences tested against T1, Ecm22 (UniProt Q05958) (assay: PBM E-score (8-mer binding enrichment) (E-score (-0.5 to 0.5)); higher = stronger / more preferred TF binding; most listed sequences are background and not binding sites). Conditions: protein concentration: 200 nM; construct: GST-full length.
T1 sequence: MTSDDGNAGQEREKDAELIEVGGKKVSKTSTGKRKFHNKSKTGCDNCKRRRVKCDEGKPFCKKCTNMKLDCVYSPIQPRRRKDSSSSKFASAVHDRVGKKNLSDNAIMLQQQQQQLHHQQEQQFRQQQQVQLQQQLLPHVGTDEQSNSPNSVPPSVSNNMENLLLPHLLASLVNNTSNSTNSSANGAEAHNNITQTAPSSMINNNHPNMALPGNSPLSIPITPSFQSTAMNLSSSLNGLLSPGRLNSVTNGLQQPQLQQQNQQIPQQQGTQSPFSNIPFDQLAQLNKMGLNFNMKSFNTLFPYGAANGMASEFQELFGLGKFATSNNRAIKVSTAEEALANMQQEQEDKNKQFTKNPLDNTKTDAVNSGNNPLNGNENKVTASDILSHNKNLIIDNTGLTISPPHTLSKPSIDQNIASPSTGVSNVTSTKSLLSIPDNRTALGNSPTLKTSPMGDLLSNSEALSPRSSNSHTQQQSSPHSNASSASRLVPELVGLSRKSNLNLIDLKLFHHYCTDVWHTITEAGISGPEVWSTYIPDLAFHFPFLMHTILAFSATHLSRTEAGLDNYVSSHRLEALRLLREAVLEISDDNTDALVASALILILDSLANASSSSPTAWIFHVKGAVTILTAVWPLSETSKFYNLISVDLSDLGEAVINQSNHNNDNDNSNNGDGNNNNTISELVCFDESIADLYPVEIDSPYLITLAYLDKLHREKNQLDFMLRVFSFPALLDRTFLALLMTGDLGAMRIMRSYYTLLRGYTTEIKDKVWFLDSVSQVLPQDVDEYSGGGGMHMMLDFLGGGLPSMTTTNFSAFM
Summary of the method: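 Full-length yeast transcription factors or their DNA-binding domains, GST-tagged and expressed with PURExpress, were applied at about 100-200 nM to universal all-10-mer Agilent arrays. These arrays had been made double-stranded by primer extension on fresh or once-stripped slides. Detection used fluorescent anti-GST, normalisation used masliner, and E-scores for ungapped eight-base words pooled with reverse complements came from the Universal PBM Analysis Suite.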

| Sequence | PBM E-score |
| --- | --- |
| GTGAGTAA | -0.161 |
| ATTGATTA | 0.153 |
| GTATAATA | 0.366 |
| ATTAAATC | 0.0123 |
| GTCCTAAA | 0.156 |
| ACCGGGGG | -0.234 |
| ACGTCGCC | -0.0891 |
| TACAGGCA | 0.0853 |
| GTGTACAC | -0.0623 |
| CGTGTTAC | 0.176 |
| AGGGCATA | -0.124 |
| AACGGGAT | 0.296 |
| CTACGCCC | -0.133 |
| CTATAAAC | 0.182 |
| TAGTTCGA | -0.0786 |
| ACCCTTTG | -0.197 |
| CCACCAGG | -0.142 |
| AGTAGGGC | -0.116 |
| CGTTTTAC | 0.27 |
| CAAAGTCG | 0.109 |
| AGTGGTAG | -0.256 |
| ATTGTGCC | -0.251 |

| Sequence | PBM E-score |
| --- | --- |
| GCGCGAAC | 0.161 |
| ATGGTAGG | -0.21 |
| CTAGATTA | 0.0455 |
| CAGTACGA | 0.423 |
| TCCAACGA | 0.00088 |
| ACCGAAAC | 0.186 |
| CTTAGGGC | -0.18 |
| GGATCTCA | -0.208 |
| CGTGATAC | 0.117 |
| AATGCGGC | 0.0713 |
| GTATGGGA | 0.0697 |
| ATTTGACG | 0.12 |
| CCTCCCTC | 0.0625 |
| GCAACTCC | -0.282 |
| GAACCCAA | 0.0131 |
| ATCAGATG | -0.142 |
| ACCTGCAC | -0.038 |
| GGGGGAAC | 0.121 |
| CATATCGC | 0.153 |
| GGTTACAC | 0.0466 |
| GAAATTGC | 0.0049 |
| CCCGAGAC | 0.181 |

| Sequence | PBM E-score |
| --- | --- |
| AAACCACG | -0.0695 |
| AGGACTGA | -0.23 |
| AGTCATTA | -0.199 |
| CGCTAAGC | 0.119 |
| ACAGAGAC | -0.00787 |
| ACACTCGC | 0.192 |
| CGGTGGTA | 0.0967 |
| GTAGGTCA | -0.0922 |
| GACATCCA | -0.135 |
| GAGTTGGA | -0.213 |
| GAGGCAGC | -0.313 |
| GCCAATCA | -0.144 |
| GACCGGAC | 0.172 |
| CTCTAATC | -0.0922 |
| CACGAGTC | -0.0272 |
| ACCTTCGC | 0.143 |
| CAGCGGAG | -0.0191 |
| CAACAGCA | -0.216 |
| CAAACGAG | 0.463 |
| AATCATAG | -0.262 |
| ATATTGAA | 0.0933 |
| CTAGTGAA | -0.122 |

| Sequence | PBM E-score |
| --- | --- |
| ACCCAAAC | 0.0384 |
| ATGTCTTC | -0.27 |
| CCAGGGAC | -0.217 |
| ATCCCCAC | -0.126 |
| ATTAAGGA | -0.131 |
| ATTCTTTG | -0.212 |
| GCTGATGA | -0.13 |
| GCCATTCA | -0.143 |
| AGCTGCGA | 0.0231 |
| ACGAAGCG | 0.317 |
| CAGGTCCA | -0.167 |
| CTTGCGCC | -0.0722 |
| CACCACTG | -0.067 |
| CCGACTAC | 0.0341 |
| ATCGACGA | -0.00044 |
| AGCGCCCT | -0.116 |
| AAGAGGCC | -0.11 |
| GTTCGTGA | 0.141 |
| CAAAGTGG | -0.197 |
| AGTACGTA | 0.283 |
